# Among all 48,000 compounds or so, about 1,200 (2.5%) were called active. About 2% were inconclusive and are not listed.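 How the source made its calls: active means activation of at least 60% and not above a set upper limit (about 1 call in 100 departs from these limits); inconclusive means activation of 40% to 60%, or above that upper limit; inactive means activation under 40%.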 This is one part of the list.
# Biological target: Probable G-protein coupled receptor 32 (Homo sapiens) (UniProt O75388)
# Chain of UniProt O75388 (O75388 whole entry, looked up): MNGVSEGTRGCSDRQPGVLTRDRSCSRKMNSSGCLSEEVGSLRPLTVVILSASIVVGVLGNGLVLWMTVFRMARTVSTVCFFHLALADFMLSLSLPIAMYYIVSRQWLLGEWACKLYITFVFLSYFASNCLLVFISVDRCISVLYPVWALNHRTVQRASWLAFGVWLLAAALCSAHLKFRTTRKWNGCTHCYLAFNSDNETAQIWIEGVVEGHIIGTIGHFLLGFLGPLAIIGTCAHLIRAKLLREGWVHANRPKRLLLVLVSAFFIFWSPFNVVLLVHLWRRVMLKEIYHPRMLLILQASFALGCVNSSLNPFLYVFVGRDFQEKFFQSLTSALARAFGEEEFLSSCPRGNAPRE
# Test: qHTS for Agonists of Human Resolvin D1 Receptor DRV1; further: 0% is about no effect
# Settings: CHO-K1 GPR32 beta-arrestin PathHunter luminescence, 90 min; at 76.9 µM; hits give high values; zero percent set by DMSO-only wells
# Procedure, shortened: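 Beta-arrestin recruitment read-out: luminescence from complemented beta-Gal in CHO-K1 GPR32 PathHunter cells, measured 1 h after detection reagent at ambient temperature following 90 min compound exposure at 37 °C; DMSO served as basal (EC0) control.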
row,Compound,activation
1,COc1ccc(S(=O)(=O)NCC(c2ccco2)S(=O)(=O)c2cccs2)cc1OC (centres undefined),inactive: -20.9%
2,CCOc1cc(-c2cc(C(=O)O)c3c(-c4ccccc4)[nH]nc3n2)ccc1O,inactive: -23.9%
3,NNCCc1ccccc1,inactive: 1.11%
4,Cc1c(Cl)cccc1NC(=O)CCS(=O)(=O)c1cccc2nsnc12,inactive: 3.12%
5,COc1ccc(OC)c(S(=O)(=O)NCCc2sc(C)nc2C)c1,inactive: -4.94%
6,CCCCNC(=O)c1ccc(-c2nc(CN3CCc4ccccc43)c(C)o2)cc1,inactive: -6.48%
7,Cc1ccc(CNC(=O)CCN2C(=O)C(C)Oc3ccc(C)cc32)cc1 (centres undefined),inactive: 23.9%
8,CCc1ccc(-c2nc3cc(NC(=O)c4ccc(F)cc4)ccc3o2)cc1,inactive: 21.6%
9,Cc1ccc(Nc2c3c(nc4ccccc24)CCC3)cc1F,inactive: -24.4%
10,Cc1cccc(COc2ccc(-c3cc(C(F)(F)F)n4nc(C)cc4n3)cc2)c1,inactive: 18.6%
11,Cc1cn2c(=O)cc(COC(=O)COc3ccc(F)cc3)nc2s1,inactive: 8.8%
12,COc1cccc(-c2nn(C)c3sc(C(=O)N4CCN(c5cccc(C(F)(F)F)c5)CC4)cc23)c1,inactive: -0.7%
13,COc1ccccc1N(CC(=O)NCCSc1ccccc1)S(=O)(=O)c1ccc(C)cc1,inactive: -24.3%
14,Cc1ccc(NC(=O)CCNS(=O)(=O)c2cccs2)cc1F,inactive: 16.1%
15,COc1cccc(CCNC(=O)c2cnc3sc(N4CCCC4)nn3c2=O)c1,inactive: -2.31%
16,Cc1cccc(-n2c3nc(=O)n(C)c(=O)c-3cc3c(C)nn(-c4ccccc4)c32)c1C,inactive: -3.16%
17,COc1ccc(-n2c(=O)c3c(c4cc(OC)ccc4n3C)n(Cc3c(F)cccc3Cl)c2=O)cc1,inactive: -4.45%
18,CSc1ncc2c(n1)-c1ccccc1N(Cc1ccccc1C)S2(=O)=O,inactive: 42.3%
19,COC1(C(F)(F)F)NC(=O)N(c2ccc(F)cc2)C1=O (centres undefined),inactive: -9.25%
20,CCOC(=O)C1=C(CN(CC)Cc2ccccc2)NC(=O)NC1c1ccc(Cl)cc1 (centres undefined),inactive: -12.1%
21,COc1ccc(NC(=O)N2CCC(n3c(C)nc4cccnc43)CC2)cc1OC,inactive: -16.3%
22,Cc1ccc(OCCSc2nc3ccc(NC(=O)COc4ccc(C)cc4)cc3s2)cc1,inactive: -2.38%
23,CCOC(=O)c1cnn(-c2cccc(Cl)c2)c1C1CCN(C(=O)OC(C)(C)C)CC1,inactive: -21.7%
24,CSc1nc2sc3c(c2c(=O)n1-c1ccc(C)cc1)CCCC3,inactive: -7.11%
25,COc1ccc(Cl)cc1NC(=O)N1CCC2(CC1)Oc1ccccc1C(=O)N2Cc1ccc(F)cc1,inactive: -9.45%
26,CC1CCc2c(sc3nnn(CC(=O)Nc4ccccc4Cl)c(=O)c23)C1 (centres undefined),inactive: 9.59%
27,Fc1ccc(NCc2nc3ccccc3n2CCOc2ccccc2Cl)cc1,inactive: -4.41%

row,Compound,activation
1,Cc1ccc(CNS(=O)(=O)c2ccc(C(=O)N(C)C)s2)cc1,inactive: -6.72%
2,CCOc1ccc(NC(=O)Cn2c(=O)n(Cc3ccc4c(c3)OCO4)c(=O)c3ccc(C(=O)NC4CCCCC4)cc32)cc1,inactive: -7.54%
3,COc1ccc(Nc2c3c(nc4ccccc24)CCC3)cc1Cl,inactive: -14.1%
4,Cc1cccc(NC(=O)Cn2c(=O)n(Cc3ccc4c(c3)OCO4)c(=O)c3oc4ccccc4c32)c1C,inactive: -15.8%
5,Cc1ccc(CN(C(=O)COc2ccccc2Cl)c2ccccn2)o1,inactive: -8.57%
6,COc1ccc(OC)c(CNC(=O)Nc2cn(CC(C)C)c(=O)c3ccccc23)c1,inactive: -27.9%
7,CCC(=O)N1c2ccc(S(=O)(=O)CCC(=O)NCc3ccccc3OC)cc2CC1C (centres undefined),inactive: 6.1%
8,CC(C)(C)C1CCc2c(sc(NC(=O)C3c4ccccc4Oc4ccccc43)c2C(N)=O)C1 (centres undefined),inactive: -12%
9,CCn1cc(S(=O)(=O)c2cc(C)cc(C)c2)c(=O)c2cc(F)c(N3CCCCC3)cc21,inactive: -16.4%
10,CCCCn1c(CNC(=O)C23CC4CC(CC(C4)C2)C3)nnc1SCC(=O)Nc1ccc(C)cc1,inactive: 41.2%
11,COCCSc1nc2c([nH]c3ccccc32)c(=O)n1-c1ccc(OC)c(OC)c1,inactive: -6.11%
12,CC1CCCCN1Cc1c(O)ccc2c(=O)c(-c3ccccc3Cl)c(C(F)(F)F)oc12 (centres undefined),inactive: -7.86%
13,Cc1ccc(CNC(=O)Nc2cc(C(=O)NCc3cccc(F)c3)ccc2N2CCCC2)cc1,inactive: -32.8%
14,CC(=O)N1CCc2cc(Br)cc(S(=O)(=O)N3CCC(C(=O)Nc4cccc(C)c4C)CC3)c21,inactive: -0.521%
15,COC(=O)c1nnn(CC(=O)NC(=O)Nc2ccc(F)cc2)c1C(=O)OC,inactive: 20.9%
16,O=C(Nc1ccc(S(=O)(=O)N2CCC(c3nc4ccccc4s3)CC2)cc1)c1ccccc1,inactive: 0.592%
17,Cc1ccc(C2CC(=O)Nc3cc4c(cc32)OCCO4)cc1Br (centres undefined),inactive: -8.13%
18,Fc1ccccc1-c1nc(N2CCN(c3cccc(Cl)c3)CC2)c2ccccc2n1,inactive: -27.4%
19,CCOc1ccc(CCNC(=O)c2cc(=O)[nH]c3ccc(S(=O)(=O)N4CCCCC4C)cc23)cc1OCC (centres undefined),inactive: -23.6%
20,Cc1ccc(-c2noc(CCC(=O)N(C)c3ccccc3F)n2)cc1,inactive: -5.22%
21,CCOC(=O)N1CCC(n2c(=O)[nH]c3cc(Cl)ccc32)CC1,active: 72.2%
22,CCn1c(=O)c2c(nc3n2CCN3c2ccc(OC)cc2)n(C)c1=O,inactive: -12.1%
23,COCCNC(=O)Cn1ccc2cc(S(=O)(=O)N3CCCCCC3)ccc21,inactive: 0.386%
24,Cc1ccc([N+](=O)[O-])cc1S(=O)(=O)N(C)C,inactive: 6.08%
25,Cc1ccc(-c2cc(C(=O)N3CCN(S(=O)(=O)c4ccc(Br)cc4)CC3)[nH]n2)c(C)c1,inactive: -13.4%
26,CC(C)OCCCn1c(=O)c2ccccc2n2c(-c3ccccc3)nnc12,inactive: 12.1%
27,CC(C)(C)C1CCc2c(sc(NC(=O)c3cccc(Cl)c3)c2C(=O)NCc2ccco2)C1 (centres undefined),inactive: 15.4%
